The record followed here is PMC9911399, “Two distinct binding modes provide the RNA-binding protein RbFox with extraordinary sequence specificity”.

Changes are numbered by the printed parent chain; changes in the protein carry UniProt numbers. Some of the results follow.

T1: RBFOX1 RRM RbFoxmut (Fox-RRM*) (Homo sapiens, UniProt Q9NWB1 109-208, R118D;E147R;N151S;E152T)
T1 sequence: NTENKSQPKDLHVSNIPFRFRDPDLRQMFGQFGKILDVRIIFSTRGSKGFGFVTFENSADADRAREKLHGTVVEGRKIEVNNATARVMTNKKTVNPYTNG

B1: GUCGGAU (DNA:RNA)
RNA: GGGAGACCGGAAUUCAGAUUGUCCGUCGGAUUUAAAUCCCGUCGUAGCCACCA
DNA 1: CAATCTGAATTCCGGTCTCCC
DNA 2: TGGTGGCTACGACGGGATT
B2: UAAGUGA (DNA:RNA)
RNA: B1 RNA with G25U, U26A, C27A, G29U, A30G, U31A
DNA 1: CAATCTGAATTCCGGTCTCCC
DNA 2: TGGTGGCTACGACGGGATT
B3: AGGCUUA (DNA:RNA)
RNA: GGGAGACCGGAAUUCAGAUUGUCCAGGCUUAUUAAAUCCCGUCGUAGCCACCA
DNA 1: CAATCTGAATTCCGGTCTCCC
DNA 2: TGGTGGCTACGACGGGATT
B4: CCCUAAG (DNA:RNA)
RNA: B1 RNA with G25C, U26C, G28U, G29A, U31G
DNA 1: CAATCTGAATTCCGGTCTCCC
DNA 2: TGGTGGCTACGACGGGATT
B5: CGGGUCG (DNA:RNA)
RNA: B3 RNA with A25C, C28G, U30C, A31G
DNA 1: CAATCTGAATTCCGGTCTCCC
DNA 2: TGGTGGCTACGACGGGATT
B6: GCGGUGC (DNA:RNA)
RNA: B3 RNA with A25G, G26C, C28G, U30G, A31C
DNA 1: CAATCTGAATTCCGGTCTCCC
DNA 2: TGGTGGCTACGACGGGATT
B7: UAUGUAA (DNA:RNA)
RNA: B3 RNA with A25U, G26A, G27U, C28G, U30A
DNA 1: CAATCTGAATTCCGGTCTCCC
DNA 2: TGGTGGCTACGACGGGATT
B8: CGAUGUA (DNA:RNA)
RNA: B3 RNA with A25C, G27A, C28U, U29G
DNA 1: CAATCTGAATTCCGGTCTCCC
DNA 2: TGGTGGCTACGACGGGATT
B9: CGGCUGA (DNA:RNA)
RNA: B3 RNA with A25C, U30G
DNA 1: CAATCTGAATTCCGGTCTCCC
DNA 2: TGGTGGCTACGACGGGATT

The assay has as its target T1, RBFOX1 RRM RbFoxmut (Fox-RRM*). Kind of assay: EMSA; HiTS-Eq, 1 nM pool, 10 min; buffer printed only for the single-RNA assays: 10 mM Tris pH 7.5, 150 mM NaCl, 3.4 mM EDTA, 0.001% NP-40, 30 C. The settings on record: tags: His6 N-terminal (pET28a); label: 5' 32P. The procedure, abridged: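 Purified wild-type or mutant RbFox RRM at increasing concentrations was equilibrated with 1 nM of 5′-radiolabelled RNA carrying 7 randomized nucleotides for 10 min in 50 µL. Unbound RNA was separated by 8% native PAGE and sequenced. Relative association constants came from read-count changes of each RNA species compared with the control reaction, normalised to the cognate motif.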
(In general: A gel shift assay detects complexes by their altered migration in electrophoresis.)
For B1, the binding signal was 0.0802 KA relative to UGCAUGU.

Take B2: the binding signal was 0.0771 KA relative to UGCAUGU.

For the molecule B3, the binding signal was 0.133 KA relative to UGCAUGU.

As to B4, the binding signal is 0.076 KA relative to UGCAUGU.

Turning to B5, the binding signal was 0.259 KA relative to UGCAUGU.

Turning to B6, the binding signal was 0.102 KA relative to UGCAUGU.

B7: the binding signal was 0.0863 KA relative to UGCAUGU.

For the molecule B8, the binding signal is 0.202 KA relative to UGCAUGU.

As to B9, the binding signal is 0.126 KA relative to UGCAUGU.
